Measurements from the supplement of paper PMC3334620.
The full ranking holds about 33,000 sequences; the median of “E-score (-0.5 to 0.5)” is about -0.016, and the highest 2% start at about 0.31. The list shows a part of the results.

Target: Cst6 (UniProt P40535)
Assay: PBM E-score (8-mer binding enrichment) (E-score (-0.5 to 0.5)); higher = stronger / more preferred TF binding; most listed sequences are background and not binding sites
Conditions: protein concentration: 200 nM; construct: GST-DNA-binding domain
Description: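 Universal 'all 10-mer' protein binding microarrays (Agilent AMADID 015681) probed with GST-tagged S. cerevisiae TFs (full-length or DBD) made by in vitro transcription/translation (PURExpress), about 100-200 nM. Bound TF was detected with fluorescent anti-GST. Each ungapped 8-mer (which stands for itself and its reverse complement) is scored by the PBM enrichment score (E-score), a modified Wilcoxon-Mann-Whitney statistic from -0.5 to +0.5, computed with the Universal PBM Analysis Suite. Scale: above 0.35 generally sequence-specific binding.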

Sequence	PBM E-score
GAGTACTA	0.0861
ATCTGCGA	-0.23
CCCGATCG	-0.0185
ATGGAGTC	-0.0353
GAACTGCC	-0.222
GACCGATA	0.0222
CGGTGGAA	-0.107
GAAGATAA	0.136
CAAGTCAG	-0.131
AACTTAAG	0.0673
AGGGAAAG	-0.204
ACGCAACT	0.133
CTTGGATC	-0.119
AGACGACT	-0.34
GGATATCC	-0.0791
GAATATCC	0.0188
ATTGCTAA	0.188
CACATTAG	-0.113
CGGAACTA	0.049
GTAGCTAC	0.036
CCGCCTAG	-0.138
AATGGTCC	-0.0776
AGCAGTAG	-0.215
AAGCGCAA	-0.0221
AGACCAGA	-0.174

Sequence	PBM E-score
GATCCGCC	0.0101
ACTGTGGA	-0.14
AGGGAGGA	-0.278
ATTCCCTG	-0.0439
CGCCTGAC	0.106
GTCGAGCA	-0.301
GACTACCA	-0.05
CCGGGTAA	0.0368
GAGGCTGC	-0.199
CGAGCCCC	-0.298
CTGTATCA	0.00931
GAAGAATC	-0.0963
CACTCTGA	-0.088
CAGTTCGA	-0.142
ATTGTTGG	0.17
AGTGGGAA	-0.0276
CGATACCA	-0.0648
ACATTCTA	0.188
AACCGTGC	0.104
CCAATAGA	-0.0188
CTGACTAA	0.0104
CGGTAGCC	-0.151
GGGTATAA	-0.0811
CCGGCGTA	-0.134
GATTTTTA	0.163

Sequence	PBM E-score
CCTTCGAG	-0.21
AACGTGCA	0.0964
GATAGCCC	-0.303
CATCTGGA	-0.121
CTGCGAAA	0.0232
CGATCACC	0.0718
ACGACTCT	-0.147
AGCTGACT	-0.0426
CTGTAGTA	0.17
AGCACTAG	-0.135
GTTCATCA	0.117
GCAGATAC	0.0922
CTGATATA	0.179
ATCGCACA	0.0332
GCGCATGA	-0.043
CATGCACA	0.13
CAACCCTG	-0.0882
ACCTACGT	0.176
GGGACTTA	-0.34
CTACGAAG	-0.247
CCTCTCGA	-0.117
AGCATCCG	-0.0957
ATGCTCTG	-0.171
CAATGTTC	-0.0427
GGATTGTA	-0.0291

Sequence	PBM E-score
ACGGCGCC	0.364
AACGTGGG	-0.154
TGATTTAA	0.225
AAAGTCTC	-0.139
GCAATTGC	0.201
ACAGCGAG	-0.0516
CCACGTGA	0.0246
ATATAGGC	0.0227
ACCGAAAA	0.169
CAACAAGC	0.0945
AACCTTAA	0.105
GGGTGCTA	-0.0878
GGGGCTAA	-0.12
ACACTACC	-0.126
TACCTCCA	-0.251
AGTGCTAA	-0.0867
GTCAGCCA	0.0293
AGGGATTG	0.0457
GCGCGGTA	-0.0504
ACCCTATC	-0.0377
TCTGAGCA	-0.0929
GAGACGTA	0.148
ATTTGGAG	0.0131
ACATTAAA	0.198
CCTGTATA	-0.101

Sequence	PBM E-score
CGTACTCC	-0.0754
CCTATTTC	0.11
ACCGATCG	0.00376
AGTCATAT	0.153
CGACAGGA	0.0383
AAGCTTAG	0.0927
ACGGACCC	-0.172
AGAGACAC	-0.0892
ACGTAAAT	0.385
GCGAACCC	-0.206
AGAAAACT	0.156
CCATGTCC	-0.0555
CTGGGTCC	-0.343
AATGTCGT	0.195
GGCCGCAA	-0.164
CGAACGTA	0.1
ACACTAAA	0.0906
AGCGCGTC	-0.0646
GCAGCACC	-0.207
CGTTAGAA	0.101
ACTTCCTA	-0.249
ATACATTC	0.0532
CTAGGCAA	-0.0898
GACTTGCC	-0.333
AATGACAG	0.167

Sequence	PBM E-score
ACAAGAGA	-0.0878
CTCTGTCC	-0.283
CATCACGA	0.183
AATGACTC	0.0789
GTAACTAA	0.128
CGGGTGCA	-0.17
CAGTGGGC	-0.144
CAATGGCC	-0.314
CCCCTGCA	-0.296
GACATCAC	0.431
CAAACGCA	-0.0382
CATTGGAG	-0.0914
CGGTGCTA	-0.164
CATCTAAC	0.0128
AGCCCGGA	-0.369
CATATTGA	0.207
CCGTCGGC	-0.145
GACGTACA	0.25
GTTTCAGA	-0.0246
ACCCAAGA	-0.118
AGCGAGCC	-0.105
AGAGAGTC	-0.145
AACCGCCA	-0.0425
CCAGTCAC	-0.207
CTGCGGCA	0.182

Sequence	PBM E-score
CGTTACCC	-0.141
CAACCCGG	-0.262
TGATCAAA	0.147
ATAGTAAA	0.158
GAAATAGC	-0.0647
CCACCTAA	-0.0425
AGACCGCT	-0.257
CTCAGAAG	-0.19
ACGGGTGG	-0.0768
CATAACAA	0.225
ATGCTAAC	0.0681
ACTCCGAC	-0.133
CGCGCACA	0.144
AAAATGTC	0.238
AGCTCTGG	-0.234
AAAATTGC	0.0935
CATCGAGA	0.0229
CAATGGTG	-0.254
ATGGTTCC	-0.00483
GTGGGAGA	-0.263
CGACCGAG	-0.244
CAACTTGC	-0.135
